Screen size: about 410,000 compounds; about 7,200 (1.8%) were called active. Inconclusive means that the source gave no clear call. Such entries were picked first, then a sample of the others. Calls come from the whole dose curve; as a rule, active = well fitted activation curve with a large enough effect; inconclusive = small, poorly fitted or top-dose-only effect, or another doubt; inactive = no such curve, though single readings can be large or run the other way. Potencies of inconclusive entries are left out as doubtful fits.
experiment: qHTS of TDP-43 Inhibitors; conditions: TDP-43 expressing yeast growth rescue, BacTiter-Glo, 24 h; growth rescue (activation): at 46.1 µM (top of the series) unless noted; note: nearly all actives have a fitted effect of over 50% in size; for growth rescue (activation): % of control where 0% means no effect
Method in brief: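 Cell-based yeast growth screen: TDP-43 expression induced in galactose, inoculum OD600=0.02 after raffinose pregrowth to mid-log. Read-out BacTiter-Glo luminescence at 24 hr, 30 deg C; inhibition of toxicity seen as signal increase.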
Potency is the fitted concentration of half-maximal effect; tags give direction and shape of the fitted curve.

| Compound | Potency | growth rescue (activation) |
| --- | --- | --- |
| CCn1c2ccccc2c2cc(CN3CCN(Cc4cccc(Cl)c4)CC3)ccc21 | inactive | – |
| CCCCc1cc(=O)oc2c(C)c(OCC(=O)N3CCC(C(=O)O)(c4ccccc4)CC3)ccc12 | inactive | – |
| COc1ccc(Br)cc1CNC(=O)C1CCC(=O)N1C(C)C (stereo not given) | inconclusive [activator, full curve, poor fit] | – |
| COc1ccc(-c2csc(NC(=O)c3ccco3)n2)cc1 | inconclusive [activator, single point] | – |
| O=S(=O)(Nc1ccc(OC(F)F)cc1)c1ccc(-c2ccon2)s1 | inactive | – |
| CCOC(=O)C(NC(=O)c1ccccc1)(Nc1cc(C)on1)C(F)(F)F (stereo not given) | inactive | – |
| CCc1c(C)nc2c(C#N)c[nH]n2c1=O | inconclusive [activator, partial curve] | – |
| COc1ccccc1-c1ccccc1C1=CC(=O)CC(C)(C)C1=O | inconclusive [activator, partial curve] | – |
| O=C(Nc1cccc(Cl)c1)N1CC2CCCN2c2ccccc21 (stereo not given) | inconclusive [activator, partial curve] | – |
| COc1ccc(-c2nc3n(n2)C(c2ccccc2OC)C(C(=O)Nc2cccnc2)=C(C)N3)cc1 (stereo not given) | inconclusive [activator, partial curve] | – |
| CN=c1c([N+](=O)[O-])nn(-c2ccc3c(c2)OCCO3)n1O | inconclusive [activator, single point] | – |
| CC(C(=O)Nc1ccc(F)c(F)c1)N1CCN(C)CC1 (stereo not given) | inactive | – |
| CCCCC(=O)N1CCc2cc(OC)c(OC)cc2C1COc1ccc(C(=O)OCC)cc1 (stereo not given) | active: 22.4 µM | – |
| Cc1cccc(C(=O)n2nc(C)c(S(=O)(=O)N3CCOCC3)c2C)c1 | inactive | – |
| CCCCn1c(CN(Cc2ccccc2)Cc2ccccc2)nc2c1c(=O)n(C)c(=O)n2C | inactive | – |
| CCC(Sc1nncn1C)C(=O)Nc1nnc(-c2ccc(Cl)cc2)s1 (stereo not given) | inconclusive [activator, partial curve, poor fit] | – |
| COC(=O)c1ccccc1NC(=O)c1cccc(NC(=O)c2ccc(Br)o2)c1C | inconclusive [activator, single point] | – |
| O=c1oc2cc(Oc3c([N+](=O)[O-])cc(C(F)(F)F)cc3[N+](=O)[O-])ccc2c2c1CCCC2 | – | inconclusive: -74% [activator] |
| Cc1nc(N2CCN(C(=O)c3ccco3)CC2)nc2c1C(=O)CC(C)C2 (stereo not given) | inconclusive [activator, single point] | – |
| Fc1ccc(NC(=S)N/N=C/c2cccc(Br)c2)c(F)c1 | inconclusive [activator, partial curve] | – |
| COc1ccc(OCc2nn3c(-c4ccco4)nnc3s2)cc1 | inconclusive [activator, partial curve] | – |
| Cc1cc2nc(C)c(=O)n(C)c2cc1C | inconclusive [activator, partial curve] | – |
| CCNCC(O)COCC(O)CNCC (stereo not given) | inconclusive [activator, single point] | – |

| Compound | Potency | growth rescue (activation) |
| --- | --- | --- |
| COC(=O)N/N=C/C1=CCC2CC1C2(C)C (stereo not given) | inconclusive [activator, partial curve] | – |
| CN(C(=O)COC(=O)c1ccc(-c2ccc(O)cc2)cc1)C1CCS(=O)(=O)C1 (stereo not given) | inactive | – |
| O=C(O)c1ccc(NS(=O)(=O)c2ccc(Cl)c(C(=O)Nc3ccccc3)c2)cc1 | inconclusive [activator, single point] | – |
| c1csc(CSc2nnc3sc4ccccc4n23)c1 | active: 14.1 µM | – |
| c1cnc2ccc(-c3ccc4ncccc4c3)cc2c1 | inconclusive [activator, single point] | – |
| COCc1ccccc1C1=CC(=O)C[C@H](c2ccc(F)cc2)C1 | inconclusive [activator, single point] | – |
| CCOc1ccc(NC(=O)CCc2c(C)nc3cc(-c4ccccc4OC)nn3c2C)cc1 | inconclusive [activator, partial curve] | – |
| O=c1c2ccccc2nnn1CSc1nnnn1-c1ccccc1 | inconclusive [activator, single point] | – |
| O=C(COc1cccc2ccccc12)N/N=C/c1ccco1 | inconclusive [activator, single point] | – |
| COC(=O)c1ccc(CSc2c(C(C)C)cnc3c2c(=O)n(C)c(=O)n3C)cc1 | inconclusive [activator, full curve] | – |
| Cc1cc(C)c(S(=O)(=O)NCCc2sc3nc(-c4ccc(F)cc4)nn3c2C)c(C)c1 | active: 20 µM | – |
| CCOC(=O)[C@]12CCCC=C1N(Cc1ccco1)C(=O)[C@H](CC(=O)NCc1ccc(OC)c(OC)c1)C2 | inactive | – |
| COc1ccc2nc(N3C(=O)/C(=C/c4ccc(Cl)cc4)NC3=S)sc2c1 | inactive | – |
| O=C(NCc1ccco1)c1ccc2c(c1)N(Cc1ccccc1)C(=O)c1ccccc1S2 | inactive | – |
| COc1cccc(-c2cc3nc4c(c(N5CCC6(CC5)OCCO6)n3n2)CCCC4)c1 | inconclusive [activator, single point] | – |
| O=C(/C=C/c1ccccc1)OCN1C(=O)c2ccccc2C1=O | inconclusive [activator, single point] | – |
| O=S(=O)(NCC(c1ccc2c(c1)OCO2)N1CCN(c2ccccc2)CC1)c1ccccc1 (stereo not given) | inactive | – |
| CC(C)(C)C1CCc2c(sc3nc(SCC(N)=O)nc(N)c23)C1 (stereo not given) | inconclusive [activator, single point] | – |
| COC(=O)c1scc(-c2ccc(C)cc2)c1S(=O)(=O)N1CCN(c2ccc(F)cc2)CC1 | inconclusive [activator, partial curve] | – |
| COc1ccc(NC(=O)c2ccccc2Oc2ccccc2)c(OC)c1 | inconclusive [activator, single point] | – |
| COc1ccccc1CC(=O)Nc1ccc2nc(Nc3cccc(C(F)(F)F)c3)cc(C)c2c1 | active: 12.6 µM | – |
| Cc1ccc(-n2ncc3c(NCc4ccco4)ncnc32)c(C)c1 | inconclusive [activator, partial curve] | – |
